For experiment [1], the target named is GST-tagged GDP-loaded WT KRAS (amino acids 1-188) (Homo sapiens, UniProt P01116). In words: KRAS WT probe displacement assay (run with the KRAS G12D assay, TR-FRET). The following applies: Table 5; WT KRAS 3 nM, biotinylated probe 1 60 nM. The format is binding.
Experiment [2] concerns the target GST-tagged GDP-loaded WT KRAS (amino acids 1-169) (Homo sapiens, UniProt P01116). In words: KRAS WT probe displacement assay (run with the KRAS G12V assay, TR-FRET). The format is binding. The following applies: Table 4; WT KRAS 3 nM, biotinylated probe 1 60 nM.

As to `CN1c2nc(OC[C@@]34CCCN3C[C@H](F)C4)nc3c(F)c(-c4cc(N)cc(Cl)c4C(F)(F)F)nc(c23)OC[C@@H]2COC[C@H]21` (single isomer, unassigned) [Example 68 Isomer 2], the half-maximal inhibitory concentration (IC50) in experiment [1] and in experiment [2] was 0.69 nM each time.
For the molecule `CN1CCCOc2cc(-c3ccc(F)c4sc(N)c(C#N)c34)c(F)c3nc(OC[C@@]45CCCN4C[C@H](F)C5)nc1c23` [Example 2, 2-amino-7-fluoro-4-(11-fluoro-2-(((2R,7aS)-2-fluorotetrahydro-1H-pyrrolizin-7a(5H)-yl)methoxy)-4-methyl-4.5,6,7-tetrahydro-[1,5]oxazocino[4,3,2-de]quinazolin-10-yl)benzo[b]thiophene-3-carbonitrile], the IC50 in experiment [1] and in experiment [2] was 4 nM throughout.
Take `C#Cc1c(F)ccc2cc(O)cc(-c3nc4c5c(nc(OC[C@@]67CCCN6C[C@H](F)C7)nc5c3F)N(C)CCCO4)c12` [Example 10, 5-ethynyl-6-fluoro-4-(4-fluoro-2-(((2R,7aS)-2-fluorotetrahydro-1H-pyrrolizin-7a(5H)-yl)methoxy)-11-methyl-8,9,10,11-tetrahydro-7-oxa-1,3,6,11-tetraazacycloocta[de]naphthalen-5-yl)naphthalen-2-ol]: the IC50 in experiment [1] and in experiment [2] was 3 nM in each case.
The molecule `CNCCN1CCCOc2nc(-c3cc(N)cc(Cl)c3C(F)(F)F)c(F)c3nc(OC[C@@]45CCCN4C[C@H](F)C5)nc1c23` [Example 17, 3-chloro-5-(4-fluoro-2-(((2R,7aS)-2-fluorotetrahydro-1H-pyrrolizin-7a(5H)-yl)methoxy)-11-(2-(methylamino)ethyl)-8,9,10,11-tetrahydro-7-oxa-1,3,6,11-tetraazacycloocta[de]naphthalen-5-yl)-4-(trifluoromethyl)aniline] had an IC50 in experiment [1] of 188 nM.
In experiment [1], `CNCCN1c2nc(OC[C@@]34CCCN3C[C@H](F)C4)nc3c(F)c(-c4cc(N)cc(Cl)c4C(F)(F)F)nc(c23)OCCC1C` (stereo partly drawn) [Example 20, 3-chloro-5-(4-fluoro-2-(((2R,7aS)-2-fluorotetrahydro-1H-pyrrolizin-7a(5H)-yl)methoxy)-10-methyl-11-(2-(methylamino)ethyl)-8,9,10,11-tetrahydro-7-oxa-1,3,6,11-tetraazacycloocta[de]naphthalen-5-yl)-4-(trifluoromethyl)aniline] registered an IC50 of 13 nM.
The same measure, in the same setting: the same measure for `CN1c2nc(OC[C@@]34CCCN3C[C@H](F)C4)nc3c(F)c(-c4cc(N)cc(Cl)c4C(F)(F)F)nc(c23)OCC2CNCC21` (stereo partly drawn) [Example 27, 3-chloro-5-(4-fluoro-2-(((2R,7aS)-2-fluorotetrahydro-1H-pyrrolizin-7a(5H)-yl)methoxy)-12-methyl-8a, 9,10,11,11a, 12-hexahydro-8H-7-oxa-1,3,6,10,12-pentaazacyclopenta[5,6]cycloocta[1,2,3-de]naphthalen-5-yl)-4-(trifluoromethyl)aniline]: 2.9 nM.
As to `CN1c2nc(OC[C@@]34CCCN3C[C@H](F)C4)nc3c(F)c(-c4cc(N)cc(Cl)c4C(F)(F)F)nc(c23)OCCC12COC2` [Example 30, 3-chloro-5-(4-fluoro-2-(((2R,7aS)-2-fluorotetrahydro-1H-pyrrolizin-7a(5H)-yl)methoxy)-11-methyl-8,9-dihydro-11H-7-oxa-1,3,6,11-tetraazaspiro[cycloocta[de]naphthalene-10,3′-oxetan]-1(11a), 2,3a, 3a^1(6a), 5-pentaen-5-yl)-4-(trifluoromethyl)aniline], the values for the 50% inhibitory concentration (IC50) in experiment [1] and in experiment [2] were 1 nM and 1.1 nM, respectively.
In experiment [1], `CNCCN1c2nc(OC[C@@]34CCCN3C[C@H](F)C4)nc3c(F)c(-c4cc(N)cc(Cl)c4C(F)(F)F)nc(c23)OCC12CCC2` [Example 36, 3-chloro-5-(4′-fluoro-2′-(((2R,7aS)-2-fluorotetrahydro-1H-pyrrolizin-7a(5H)-yl)methoxy)-10′-(2-(methylamino)ethyl)-8′H, 10′H-7′-oxa-1′,3′,6′,10′-tetraazaspiro[cyclobutane-1,9′-cyclohepta[de]naphthalen]-1′(10a′), 2′0.3a′, 3 al′(6a′), 5′-pentaen-5′-yl)-4-(trifluoromethyl)aniline] had an IC50 of 30 nM.
Same read-out and setting: the same measure for `CN(C)CCN1c2nc(OC[C@@]34CCCN3C[C@H](F)C4)nc3c(F)c(-c4cc(N)cc(Cl)c4C(F)(F)F)nc(c23)OCC12CCC2` [Example 37, 3-chloro-5-(10′-(2-(dimethylamino)ethyl)-4′-fluoro-2′-(((2R,7aS)-2-fluorotetrahydro-1H-pyrrolizin-7a(5H)-yl)methoxy)-8′H, 10′H-7′-oxa-1′,3′,6′,10′-tetraazaspiro[cyclobutane-1,9′-cyclohepta[de]naphthalen]-1′(10a′), 2′,3a′, 3 al′(6a′), 5′-pentaen-5′-yl)-4-(trifluoromethyl)aniline]: 8.7 nM; for `CNCC(C)N1c2nc(OC[C@@]34CCCN3C[C@H](F)C4)nc3c(F)c(-c4cc(N)cc(Cl)c4C(F)(F)F)nc(c23)OCC12CCC2` (stereo partly drawn) [Example 38, 3-chloro-5-(4′-fluoro-2′-(((2R,7aS)-2-fluorotetrahydro-1H-pyrrolizin-7a(5H)-yl)methoxy)-10′-(1-(methylamino)propan-2-yl)-8′H, 10′H-7′-oxa-1′,3′,6′,10′-tetraazaspiro[cyclobutane-1,9′-cyclohepta[de]naphthalen]-1′(10a′), 2′,3a′, 3 al′(6a′), 5′-pentaen-5′-yl)-4-(trifluoromethyl)aniline]: 10 nM; for `CNCC(C)N1CCCOc2nc(-c3cc(N)cc(Cl)c3C(F)(F)F)c(F)c3nc(OC[C@@]45CCCN4C[C@H](F)C5)nc1c23` (stereo partly drawn) [Example 39, 3-chloro-5-(4-fluoro-2-(((2R,7aS)-2-fluorotetrahydro-1H-pyrrolizin-7a(5H)-yl)methoxy)-11-(1-(methylamino)propan-2-yl)-8,9,10,11-tetrahydro-7-oxa-1,3,6,11-tetraazacycloocta[de]naphthalen-5-yl)-4-(trifluoromethyl)aniline]: 170 nM.
Still for that read-out and setting: the same measure for `CC(CN(C)C)N1CCCOc2nc(-c3cc(N)cc(Cl)c3C(F)(F)F)c(F)c3nc(OC[C@@]45CCCN4C[C@H](F)C5)nc1c23` (stereo partly drawn) [Example 40, 3-chloro-5-(11-(1-(dimethylamino)propan-2-yl)-4-fluoro-2-(((2R,7aS)-2-fluorotetrahydro-1H-pyrrolizin-7a(5H)-yl)methoxy)-8,9,10,11-tetrahydro-7-oxa-1,3,6,11-tetraazacycloocta[de]naphthalen-5-yl)-4-(trifluoromethyl)aniline]: 166 nM.
On the same count and under the same terms, then `Nc1cc(Cl)c(C(F)(F)F)c(-c2nc3c4c(nc(OC[C@@]56CCCN5C[C@H](F)C6)nc4c2F)N([C@@H]2CCNC2)CCCO3)c1` [Example 41, 3-chloro-5-(4-fluoro-2-(((2R,7aS)-2-fluorotetrahydro-1H-pyrrolizin-7a(5H)-yl)methoxy)-11-((R)-pyrrolidin-3-yl)-8,9,10,11-tetrahydro-7-oxa-1,3,6,11-tetraazacycloocta[de]naphthalen-5-yl)-4-(trifluoromethyl)aniline], with 270 nM; and `CNCCN1c2nc(OC[C@@]34CCCN3C[C@H](F)C4)nc3c(F)c(-c4cc(N)cc(Cl)c4C(F)(F)F)nc(c23)OCCC12CC2` [Example 42, 3-chloro-5-(4-fluoro-2-(((2R,7aS)-2-fluorotetrahydro-1H-pyrrolizin-7a(5H)-yl)methoxy)-11-(2-(methylamino)ethyl)-8,9-dihydro-11H-7-oxa-1,3,6,11-tetraazaspiro[cycloocta[de]naphthalene-10,1′-cyclopropan]-1(11a), 2,3a, 4,6-pentaen-5-yl)-4-(trifluoromethyl)aniline], with 1.4 nM; and `CN(C)CCN1c2nc(OC[C@@]34CCCN3C[C@H](F)C4)nc3c(F)c(-c4cc(N)cc(Cl)c4C(F)(F)F)nc(c23)OCCC12CC2` [Example 43, 3-chloro-5-(11-(2-(dimethylamino)ethyl)-4-fluoro-2-(((2R,7aS)-2-fluorotetrahydro-1H-pyrrolizin-7a(5H)-yl)methoxy)-8,9-dihydro-11H-7-oxa-1,3,6,11-tetraazaspiro[cycloocta[de]naphthalene-10,1′-cyclopropan]-1(11a), 2,3a, 4,6-pentaen-5-yl)-4-(trifluoromethyl)aniline], with 2.1 nM.
On to `CN(C)CCN1c2nc(OC[C@@]34CCCN3C[C@H](F)C4)nc3c(F)c(-c4cc(N)cc(Cl)c4C(F)(F)F)nc(c23)OCCC12COC2` [Example 44, 3-chloro-5-(11-(2-(dimethylamino)ethyl)-4-fluoro-2-(((2R,7aS)-2-fluorotetrahydro-1H-pyrrolizin-7a(5H)-yl)methoxy)-8,9-dihydro-11H-7-oxa-1,3,6,11-tetraazaspiro[cycloocta[de]naphthalene-10,3′-oxetan]-1(11a), 2,3a, 4,6-pentaen-5-yl)-4-(trifluoromethyl)aniline], for which, in experiment [1], the IC50 amounted to 3.4 nM.
On the same count and under the same terms, then `CNCCN1c2nc(OC[C@@]34CCCN3C[C@H](F)C4)nc3c(F)c(-c4cc(N)cc(Cl)c4C(F)(F)F)nc(c23)O[C@H]2CCCC[C@@H]21` [Example 48, 3-chloro-5-((7aS,11aS)-4-fluoro-2-(((2R,7aS)-2-fluorotetrahydro-1H-pyrrolizin-7a(5H)-yl)methoxy)-12-(2-(methylamino)ethyl)-7a, 8,10,11,11a, 12-hexahydro-9H-7-oxa-1,3,6,12-tetraazapleiaden-5-yl)-4-(trifluoromethyl)aniline], with 28 nM.
For the molecule `Cc1c(F)c(N)cc(-c2nc3c4c(nc(OC[C@@]56CCCN5C[C@H](F)C6)nc4c2F)N(C)[C@H]2CCOC[C@@H]2O3)c1C(F)(F)F` [Example 67, 2-fluoro-5-((7aR,11aS)-4-fluoro-2-(((2R,7aS)-2-fluorotetrahydro-1H-pyrrolizin-7a(5H)-yl)methoxy)-12-methyl-7a, 8,10,11,11a, 12-hexahydro-7,9-dioxa-1,3,6,12-tetraazapleiaden-5-yl)-3-methyl-4-(trifluoromethyl)aniline], the 50% inhibitory concentration (IC50) in experiment [2] is 0.87 nM.

The values above are taken from US20240262848A1, “HETEROCYCLIC COMPOUNDS, COMPOSITIONS THEREOF, AND METHODS OF TREATMENT THEREWITH” (BeiGene, Ltd., priority 2022, published 2024).
